From PMC9911399, “Two distinct binding modes provide the RNA-binding protein RbFox with extraordinary sequence specificity”
Residue numbers refer to the chain shown, from its start. Some of the results follow.

T1: RBFOX1 RRM RbFoxmut (Fox-RRM*) (Homo sapiens, UniProt Q9NWB1 109-208, R118D;E147R;N151S;E152T)
T1 sequence: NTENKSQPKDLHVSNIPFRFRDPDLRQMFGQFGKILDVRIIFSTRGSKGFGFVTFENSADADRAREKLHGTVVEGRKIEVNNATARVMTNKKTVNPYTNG

B1: AUUAGCU (DNA:RNA)
RNA: GGGAGACCGGAAUUCAGAUUGUCCAUUAGCUUUAAAUCCCGUCGUAGCCACCA
DNA 1: CAATCTGAATTCCGGTCTCCC
DNA 2: TGGTGGCTACGACGGGATT
B2: CUUCACC (DNA:RNA)
RNA: B1 RNA with A25C, A28C, G29A, U31C
DNA 1: CAATCTGAATTCCGGTCTCCC
DNA 2: TGGTGGCTACGACGGGATT
B3: GUGCCUC (DNA:RNA)
RNA: B1 RNA with A25G, U27G, A28C, G29C, C30U, U31C
DNA 1: CAATCTGAATTCCGGTCTCCC
DNA 2: TGGTGGCTACGACGGGATT
B4: GUUAUUA (DNA:RNA)
RNA: B1 RNA with A25G, G29U, C30U, U31A
DNA 1: CAATCTGAATTCCGGTCTCCC
DNA 2: TGGTGGCTACGACGGGATT
B5: UAACGAC (DNA:RNA)
RNA: B1 RNA with A25U, U26A, U27A, A28C, C30A, U31C
DNA 1: CAATCTGAATTCCGGTCTCCC
DNA 2: TGGTGGCTACGACGGGATT
B6: CUAAUCA (DNA:RNA)
RNA: B1 RNA with A25C, U27A, G29U, U31A
DNA 1: CAATCTGAATTCCGGTCTCCC
DNA 2: TGGTGGCTACGACGGGATT
B7: UUCUGAU (DNA:RNA)
RNA: B1 RNA with A25U, U27C, A28U, C30A
DNA 1: CAATCTGAATTCCGGTCTCCC
DNA 2: TGGTGGCTACGACGGGATT
B8: AACACUC (DNA:RNA)
RNA: B1 RNA with U26A, U27C, G29C, C30U, U31C
DNA 1: CAATCTGAATTCCGGTCTCCC
DNA 2: TGGTGGCTACGACGGGATT
B9: UUCAAUA (DNA:RNA)
RNA: B1 RNA with A25U, U27C, G29A, C30U, U31A
DNA 1: CAATCTGAATTCCGGTCTCCC
DNA 2: TGGTGGCTACGACGGGATT
B10: UGCGAGC (DNA:RNA)
RNA: GGGAGACCGGAAUUCAGAUUGUCCUGCGAGCUUAAAUCCCGUCGUAGCCACCA
DNA 1: CAATCTGAATTCCGGTCTCCC
DNA 2: TGGTGGCTACGACGGGATT
B11: ACGACGU (DNA:RNA)
RNA: B1 RNA with U26C, U27G, G29C, C30G
DNA 1: CAATCTGAATTCCGGTCTCCC
DNA 2: TGGTGGCTACGACGGGATT
B12: ACCUACC (DNA:RNA)
RNA: B10 RNA with U25A, G26C, G28U, G30C
DNA 1: CAATCTGAATTCCGGTCTCCC
DNA 2: TGGTGGCTACGACGGGATT
B13: CCCCUGC (DNA:RNA)
RNA: B10 RNA with U25C, G26C, G28C, A29U
DNA 1: CAATCTGAATTCCGGTCTCCC
DNA 2: TGGTGGCTACGACGGGATT
B14: AUCCUGC (DNA:RNA)
RNA: B10 RNA with U25A, G26U, G28C, A29U
DNA 1: CAATCTGAATTCCGGTCTCCC
DNA 2: TGGTGGCTACGACGGGATT
B15: GCGAUAC (DNA:RNA)
RNA: B1 RNA with A25G, U26C, U27G, G29U, C30A, U31C
DNA 1: CAATCTGAATTCCGGTCTCCC
DNA 2: TGGTGGCTACGACGGGATT
B16: GCAAUAU (DNA:RNA)
RNA: B1 RNA with A25G, U26C, U27A, G29U, C30A
DNA 1: CAATCTGAATTCCGGTCTCCC
DNA 2: TGGTGGCTACGACGGGATT
B17: GCUAUAU (DNA:RNA)
RNA: B1 RNA with A25G, U26C, G29U, C30A
DNA 1: CAATCTGAATTCCGGTCTCCC
DNA 2: TGGTGGCTACGACGGGATT
B18: AUGCGAA (DNA:RNA)
RNA: B1 RNA with U27G, A28C, C30A, U31A
DNA 1: CAATCTGAATTCCGGTCTCCC
DNA 2: TGGTGGCTACGACGGGATT
B19: AACGGCA (DNA:RNA)
RNA: B1 RNA with U26A, U27C, A28G, U31A
DNA 1: CAATCTGAATTCCGGTCTCCC
DNA 2: TGGTGGCTACGACGGGATT
B20: UGUUCUC (DNA:RNA)
RNA: B10 RNA with C27U, G28U, A29C, G30U
DNA 1: CAATCTGAATTCCGGTCTCCC
DNA 2: TGGTGGCTACGACGGGATT
B21: AGGCUGA (DNA:RNA)
RNA: B10 RNA with U25A, C27G, G28C, A29U, C31A
DNA 1: CAATCTGAATTCCGGTCTCCC
DNA 2: TGGTGGCTACGACGGGATT
B22: CACCGGG (DNA:RNA)
RNA: B10 RNA with U25C, G26A, G28C, A29G, C31G
DNA 1: CAATCTGAATTCCGGTCTCCC
DNA 2: TGGTGGCTACGACGGGATT
B23: UUUUAUA (DNA:RNA)
RNA: B1 RNA with A25U, A28U, G29A, C30U, U31A
DNA 1: CAATCTGAATTCCGGTCTCCC
DNA 2: TGGTGGCTACGACGGGATT
B24: AAAUACU (DNA:RNA)
RNA: B1 RNA with U26A, U27A, A28U, G29A
DNA 1: CAATCTGAATTCCGGTCTCCC
DNA 2: TGGTGGCTACGACGGGATT
B25: GGCCGGU (DNA:RNA)
RNA: B10 RNA with U25G, G28C, A29G, C31U
DNA 1: CAATCTGAATTCCGGTCTCCC
DNA 2: TGGTGGCTACGACGGGATT
B26: GCAGUGA (DNA:RNA)
RNA: B10 RNA with U25G, G26C, C27A, A29U, C31A
DNA 1: CAATCTGAATTCCGGTCTCCC
DNA 2: TGGTGGCTACGACGGGATT
B27: UUAAGCG (DNA:RNA)
RNA: B1 RNA with A25U, U27A, U31G
DNA 1: CAATCTGAATTCCGGTCTCCC
DNA 2: TGGTGGCTACGACGGGATT
B28: CUGCCUU (DNA:RNA)
RNA: B1 RNA with A25C, U27G, A28C, G29C, C30U
DNA 1: CAATCTGAATTCCGGTCTCCC
DNA 2: TGGTGGCTACGACGGGATT
B29: AGGAGAA (DNA:RNA)
RNA: B1 RNA with U26G, U27G, C30A, U31A
DNA 1: CAATCTGAATTCCGGTCTCCC
DNA 2: TGGTGGCTACGACGGGATT
B30: GUCGGUC (DNA:RNA)
RNA: B10 RNA with U25G, G26U, A29G, G30U
DNA 1: CAATCTGAATTCCGGTCTCCC
DNA 2: TGGTGGCTACGACGGGATT
B31: GUGCUAG (DNA:RNA)
RNA: B1 RNA with A25G, U27G, A28C, G29U, C30A, U31G
DNA 1: CAATCTGAATTCCGGTCTCCC
DNA 2: TGGTGGCTACGACGGGATT

biological target: T1, RBFOX1 RRM RbFoxmut (Fox-RRM*); assay: EMSA; HiTS-Eq, 1 nM pool, 10 min; buffer printed only for the single-RNA assays: 10 mM Tris pH 7.5, 150 mM NaCl, 3.4 mM EDTA, 0.001% NP-40, 30 C; conditions: tags: His6 N-terminal (pET28a); label: 5' 32P
Outline: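 A pool of RNA with 7 randomized nucleotides, 5′-radiolabelled and with DNA-annealed flanks, was equilibrated at 1 nM for 10 min in 50 µL with purified RbFox RRM, wild type or mutant, across increasing protein concentrations. Free RNA was separated by 8% native PAGE, excised, reverse-transcribed, barcoded by PCR and sequenced. Relative association constants were obtained from read-count changes of each RNA species versus the control reaction and normalised to the cognate motif.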

Row | Binder | binding signal
1 | B1 | 0.141 KA relative to UGCAUGU
2 | B2 | 0.0684 KA relative to UGCAUGU
3 | B3 | 0.105 KA relative to UGCAUGU
4 | B4 | 0.132 KA relative to UGCAUGU
5 | B5 | 0.0505 KA relative to UGCAUGU
6 | B6 | 0.0869 KA relative to UGCAUGU
7 | B7 | 0.0736 KA relative to UGCAUGU
8 | B8 | 0.0249 KA relative to UGCAUGU
9 | B9 | 0.094 KA relative to UGCAUGU
10 | B10 | 0.112 KA relative to UGCAUGU
11 | B11 | 0.105 KA relative to UGCAUGU
12 | B12 | 0.07 KA relative to UGCAUGU
13 | B13 | 0.0955 KA relative to UGCAUGU
14 | B14 | 0.118 KA relative to UGCAUGU
15 | B15 | 0.057 KA relative to UGCAUGU
16 | B16 | 0.0925 KA relative to UGCAUGU

Row | Binder | binding signal
17 | B17 | 0.115 KA relative to UGCAUGU
18 | B18 | 0.131 KA relative to UGCAUGU
19 | B19 | 0.115 KA relative to UGCAUGU
20 | B20 | 0.0604 KA relative to UGCAUGU
21 | B21 | 0.127 KA relative to UGCAUGU
22 | B22 | 0.0671 KA relative to UGCAUGU
23 | B23 | 0.15 KA relative to UGCAUGU
24 | B24 | 0.0921 KA relative to UGCAUGU
25 | B25 | 0.103 KA relative to UGCAUGU
26 | B26 | 0.0882 KA relative to UGCAUGU
27 | B27 | 0.104 KA relative to UGCAUGU
28 | B28 | 0.0749 KA relative to UGCAUGU
29 | B29 | 0.123 KA relative to UGCAUGU
30 | B30 | 0.171 KA relative to UGCAUGU
31 | B31 | 0.145 KA relative to UGCAUGU
